Source: the CheMixHub viscosity set
Where “and” joins values, the source holds several entries; their conditions need not be identical. Equal values may be shown once. ± gives the uncertainty stated by the source. The source gives many values for each of these; only a part stands here.

Test: xn = mol fraction of the nth substance listed

[Ca+2].[Cl-].[Cl-] + O
Details	viscosity
293.15 K, 100 kPa, x1 = 0.0018	1.032 ± 0.034 mPa·s
293.15 K, 100 kPa, x1 = 0.0059	1.1 ± 0.036 mPa·s
293.15 K, 100 kPa, x1 = 0.012	1.2 ± 0.039 mPa·s
293.15 K, 100 kPa, x1 = 0.017	1.314 ± 0.043 mPa·s
293.15 K, 100 kPa, x1 = 0.0246	1.492 ± 0.048 mPa·s
293.15 K, 100 kPa, x1 = 0.0348	1.8 ± 0.058 mPa·s
293.15 K, 101 kPa, x1 = 0.07	3.29 ± 0.16 mPa·s
293.15 K, 101 kPa, x1 = 0.08	5.22 ± 0.25 mPa·s
293.15 K, 101 kPa, x1 = 0.087	6.06 ± 0.29 mPa·s
293.15 K, 101 kPa, x1 = 0.1	9.39 ± 0.45 mPa·s
293.15 K, 101 kPa, x1 = 0.103	10.61 ± 0.51 mPa·s
293.15 K, 101 kPa, x1 = 0.11	12.11 ± 0.58 mPa·s and 15.08 ± 0.72 mPa·s
293.15 K, 101 kPa, x1 = 0.12	16.71 ± 0.8 mPa·s
293.15 K, 101.3 kPa, x1 = 0.0009	1.018 ± 0.022 mPa·s
293.15 K, 101.3 kPa, x1 = 0.0018	1.034 ± 0.022 mPa·s
293.15 K, 101.3 kPa, x1 = 0.00893	1.156 ± 0.025 mPa·s
293.15 K, 101.3 kPa, x1 = 0.0177	1.328 ± 0.028 mPa·s
293.15 K, 101.3 kPa, x1 = 0.03478	1.789 ± 0.038 mPa·s
293.15 K, 101.3 kPa, x1 = 0.05127	2.488 ± 0.053 mPa·s
293.15 K, 101.3 kPa, x1 = 0.06722	3.603 ± 0.077 mPa·s
293.15 K, 101.3 kPa, x1 = 0.09755	8.476 ± 0.18 mPa·s
298.15 K, 100 kPa, x1 = 0.0018	0.9179 ± 0.03 mPa·s
298.15 K, 100 kPa, x1 = 0.0059	0.9816 ± 0.032 mPa·s
298.15 K, 100 kPa, x1 = 0.012	1.073 ± 0.035 mPa·s
298.15 K, 100 kPa, x1 = 0.017	1.175 ± 0.038 mPa·s
298.15 K, 100 kPa, x1 = 0.0246	1.339 ± 0.043 mPa·s
298.15 K, 100 kPa, x1 = 0.0348	1.618 ± 0.053 mPa·s
298.15 K, 101 kPa, x1 = 0.051	2.238 ± 0.027 mPa·s
298.15 K, 101.3 kPa, x1 = 0.0009	0.9052 ± 0.019 mPa·s
298.15 K, 101.3 kPa, x1 = 0.0018	0.9192 ± 0.02 mPa·s
298.15 K, 101.3 kPa, x1 = 0.00893	1.032 ± 0.022 mPa·s
298.15 K, 101.3 kPa, x1 = 0.0177	1.19 ± 0.025 mPa·s
298.15 K, 101.3 kPa, x1 = 0.06722	3.225 ± 0.068 mPa·s
298.15 K, 101.3 kPa, x1 = 0.09755	7.414 ± 0.16 mPa·s
303.15 K, 101 kPa, x1 = 0.07	2.56 ± 0.12 mPa·s
303.15 K, 101 kPa, x1 = 0.08	3.99 ± 0.19 mPa·s
303.15 K, 101 kPa, x1 = 0.087	4.66 ± 0.22 mPa·s
303.15 K, 101 kPa, x1 = 0.1	6.96 ± 0.33 mPa·s
303.15 K, 101 kPa, x1 = 0.103	7.95 ± 0.38 mPa·s
303.15 K, 101 kPa, x1 = 0.11	8.84 ± 0.43 mPa·s and 10.88 ± 0.52 mPa·s
303.15 K, 101 kPa, x1 = 0.12	11.67 ± 0.56 mPa·s
303.15 K, 101.3 kPa, x1 = 0.0009	0.8107 ± 0.017 mPa·s
303.15 K, 101.3 kPa, x1 = 0.0018	0.8242 ± 0.017 mPa·s
303.15 K, 101.3 kPa, x1 = 0.00893	0.9285 ± 0.02 mPa·s
303.15 K, 101.3 kPa, x1 = 0.0177	1.074 ± 0.023 mPa·s
303.15 K, 101.3 kPa, x1 = 0.03478	1.457 ± 0.031 mPa·s
303.15 K, 101.3 kPa, x1 = 0.05127	2.025 ± 0.043 mPa·s
303.15 K, 101.3 kPa, x1 = 0.06722	2.908 ± 0.062 mPa·s
303.15 K, 101.3 kPa, x1 = 0.09755	6.541 ± 0.14 mPa·s
308.15 K, 101 kPa, x1 = 0.051	1.835 ± 0.022 mPa·s
308.15 K, 101.3 kPa, x1 = 0.0009	0.7318 ± 0.015 mPa·s
308.15 K, 101.3 kPa, x1 = 0.0018	0.7442 ± 0.016 mPa·s
308.15 K, 101.3 kPa, x1 = 0.00893	0.8406 ± 0.018 mPa·s
308.15 K, 101.3 kPa, x1 = 0.0177	0.9753 ± 0.021 mPa·s
308.15 K, 101.3 kPa, x1 = 0.03478	1.326 ± 0.028 mPa·s
308.15 K, 101.3 kPa, x1 = 0.05127	1.844 ± 0.039 mPa·s
308.15 K, 101.3 kPa, x1 = 0.06722	2.636 ± 0.056 mPa·s
308.15 K, 101.3 kPa, x1 = 0.09755	5.814 ± 0.12 mPa·s
308.45 K, 100 kPa, x1 = 0.0348	1.322 ± 0.043 mPa·s
309.75 K, 100 kPa, x1 = 0.0246	1.066 ± 0.035 mPa·s
310.25 K, 100 kPa, x1 = 0.0018	0.713 ± 0.023 mPa·s
312.45 K, 100 kPa, x1 = 0.0059	0.733 ± 0.024 mPa·s
313.15 K, 101 kPa, x1 = 0.07	2.05 ± 0.1 mPa·s
313.15 K, 101 kPa, x1 = 0.08	3.09 ± 0.15 mPa·s
313.15 K, 101 kPa, x1 = 0.087	3.62 ± 0.17 mPa·s
313.15 K, 101 kPa, x1 = 0.1	5.3 ± 0.25 mPa·s
313.15 K, 101 kPa, x1 = 0.103	5.91 ± 0.28 mPa·s
313.15 K, 101 kPa, x1 = 0.11	6.65 ± 0.32 mPa·s and 8.08 ± 0.39 mPa·s
313.15 K, 101 kPa, x1 = 0.12	8.79 ± 0.42 mPa·s
313.45 K, 100 kPa, x1 = 0.012	0.7889 ± 0.026 mPa·s
315.38 K, 100 kPa, x1 = 0.017	0.842 ± 0.027 mPa·s
318.15 K, 101.3 kPa, x1 = 0.0009	0.6075 ± 0.013 mPa·s
318.15 K, 101.3 kPa, x1 = 0.0018	0.6181 ± 0.013 mPa·s
318.15 K, 101.3 kPa, x1 = 0.00893	0.7004 ± 0.015 mPa·s
318.15 K, 101.3 kPa, x1 = 0.0177	0.8172 ± 0.017 mPa·s
318.15 K, 101.3 kPa, x1 = 0.03478	1.119 ± 0.024 mPa·s
318.15 K, 101.3 kPa, x1 = 0.05127	1.554 ± 0.033 mPa·s
318.15 K, 101.3 kPa, x1 = 0.06722	2.207 ± 0.047 mPa·s
318.15 K, 101.3 kPa, x1 = 0.09755	4.699 ± 0.1 mPa·s
323.15 K, 101 kPa, x1 = 0.07	1.72 ± 0.08 mPa·s
323.15 K, 101 kPa, x1 = 0.08	2.56 ± 0.12 mPa·s
323.15 K, 101 kPa, x1 = 0.087	2.95 ± 0.14 mPa·s
323.15 K, 101 kPa, x1 = 0.1	4.22 ± 0.2 mPa·s
323.15 K, 101 kPa, x1 = 0.103	4.68 ± 0.22 mPa·s
323.15 K, 101 kPa, x1 = 0.11	5.26 ± 0.25 mPa·s and 6.29 ± 0.3 mPa·s
323.15 K, 101 kPa, x1 = 0.12	6.72 ± 0.32 mPa·s
